{"source": "the RNAGym collection of RNA variant scans (doi:10.7554/elife.90254)", "parents": {"B1": {"name": "LINE1-mini (parent)", "chain": "GGCAGAGCUCAACACAGCGUGGCAAAGUGGCUGUGGCUAGACUGCC"}}, "note": "The source gives no read counts; variants with many changes may rest on few reads."}
{"variants_of": "B1", "test": "self-cleavage, relative activity (ratio to wild type); higher = more cleavage; in vitro, sequencing; the parent is a self-cleaving ribozyme"}
{"variant": "C13U A25C G27A G44U", "self-cleavage": 0.01}
{"variant": "C13G U34C A39C", "self-cleavage": 0.01}
{"variant": "C13U A25G G27C G30U A41C C42G U43G", "self-cleavage": 0.04}
{"variant": "C13G G35C C37G A39G", "self-cleavage": 0.01}
{"variant": "C13G G27A C31G G36U", "self-cleavage": 0.05}
{"variant": "C13U C15A U38C C42G", "self-cleavage": 0.18}
{"variant": "C13U C15G U28A G33A", "self-cleavage": 0.03}
{"variant": "C13G G27C G35U A41G", "self-cleavage": 0.06}
{"variant": "C13G G22U G29A C42U", "self-cleavage": 0.07}
{"variant": "C13U A14C G21U U28G", "self-cleavage": 0.02}
{"variant": "C13G G33U U34A U43A C45U", "self-cleavage": 0.02}
{"variant": "C13U A25C G35A", "self-cleavage": 0.42}
{"variant": "C13U A14U U28A", "self-cleavage": 0.06}
{"variant": "C13U A26G C37G", "self-cleavage": 0}
{"variant": "C13G G21C A41U", "self-cleavage": 0.14}
{"variant": "C13G G19U G21A", "self-cleavage": 0.31}
{"variant": "C13G U20G A41C G44C", "self-cleavage": 0.05}
{"variant": "C13U A16C C23A", "self-cleavage": 0.17}
{"variant": "C13U A26G U32C", "self-cleavage": 0.09}
{"variant": "C13G G30U G40C", "self-cleavage": 0.02}
{"variant": "C13G G29U A41G C42A G44U", "self-cleavage": 0.01}
{"variant": "C13G G21U A26G G30U U43A", "self-cleavage": 0.04}
{"variant": "C13U A14U A24G U28A G33C", "self-cleavage": 0}
{"variant": "C13G G19U C23U", "self-cleavage": 0.07}
{"variant": "C13U A16C U28G", "self-cleavage": 0.03}
{"variant": "C13G G29U G44A", "self-cleavage": 0.17}
{"variant": "C13U A24C G36U", "self-cleavage": 0.07}
{"variant": "C13U A16C C18A G30U C37G U43C", "self-cleavage": 0.2}
{"variant": "C13G U20A C46A", "self-cleavage": 0.09}
{"variant": "C13G G17U G19U U28A C31A G44U", "self-cleavage": 0}
{"variant": "C13U A16U G17U A26U G29U U43A", "self-cleavage": 0.04}
{"variant": "C13G U32G C42A", "self-cleavage": 0.03}
{"variant": "C13G G27U C45A", "self-cleavage": 0.02}
{"variant": "C13U A16U G30U", "self-cleavage": 0.15}
{"variant": "C13U A14C A25U", "self-cleavage": 0}
{"variant": "C13U A16G G19U U32A", "self-cleavage": 0.02}
{"variant": "C13U A14C G17U", "self-cleavage": 0.02}
{"variant": "C13G U20G A25G U43C", "self-cleavage": 0.02}
{"variant": "C13G G22U U28C", "self-cleavage": 0.26}
{"variant": "C13U A41G C42U", "self-cleavage": 0.01}
{"variant": "C13G U20G G22U G30A", "self-cleavage": 0.24}
{"variant": "C13G U28C C31G", "self-cleavage": 0.06}
{"variant": "C13G G22A G40U", "self-cleavage": 0.07}
{"variant": "C13U A25C U32C", "self-cleavage": 0.16}
{"variant": "C13G U32A C37G G40U", "self-cleavage": 0.01}
{"variant": "C13U A16C G29U", "self-cleavage": 0.09}
{"variant": "C13U A14U A16C G19A C45G", "self-cleavage": 0.06}
{"variant": "C13U A16U G44U", "self-cleavage": 0.03}
{"variant": "C13U A24C G29A U34A G44U", "self-cleavage": 0}
{"variant": "C13U C15A G19A G22U G36A", "self-cleavage": 0.07}
{"variant": "C13G G33A G35A", "self-cleavage": 0.17}
{"variant": "C13G U20C G36A", "self-cleavage": 0.03}
{"variant": "C13G U38C G40A", "self-cleavage": 0.01}
{"variant": "C13G G27U G35U", "self-cleavage": 0.56}
{"variant": "C13G G36U U43G C45G", "self-cleavage": 0.13}
{"variant": "C13G U32C C45U C46U", "self-cleavage": 0.01}
{"variant": "C13G U20C G36U C37G", "self-cleavage": 0.03}
{"variant": "C13U A16G G17C G40A", "self-cleavage": 0.21}
{"variant": "C13G G27C C37U", "self-cleavage": 0.06}
{"variant": "C13U C15U A16C U20G G27U G44C", "self-cleavage": 0.02}
{"variant": "C13U C15A A41G", "self-cleavage": 0.16}
{"variant": "C13U C15U G40A", "self-cleavage": 0.14}
{"variant": "C13G G22A U34C U38G A39U", "self-cleavage": 0.26}
{"variant": "C13G G17U G21C G22U", "self-cleavage": 0.1}
{"variant": "C13G G21U G29C", "self-cleavage": 0.1}
{"variant": "C13U C15A G21C G29C G35C C37U", "self-cleavage": 0.05}
{"variant": "C13U A14U G29A", "self-cleavage": 0.07}
{"variant": "C13G G36A C46A", "self-cleavage": 0.01}
{"variant": "C13U A14C G22A U32C C42G", "self-cleavage": 0.03}
{"variant": "C13G G29A A39U G40U U43A", "self-cleavage": 0.09}
{"variant": "C13U C15A C46G", "self-cleavage": 0.07}
{"variant": "C13U A16G G29U", "self-cleavage": 0.12}
{"variant": "C13U A16U G33U C42A", "self-cleavage": 0.07}
{"variant": "C13G G33A C37A C42U", "self-cleavage": 0.01}
{"variant": "C13U C15A A26U", "self-cleavage": 0.2}
{"variant": "C13U C15U G29U A39C", "self-cleavage": 0.25}
{"variant": "C13U C15A G21U", "self-cleavage": 0.06}
{"variant": "C13U C15G C46U", "self-cleavage": 0.03}
{"variant": "C13G G44U C46A", "self-cleavage": 0.02}
{"variant": "C13G G36A C45U", "self-cleavage": 0.38}
{"variant": "C13U C15U U34A", "self-cleavage": 0.15}
{"variant": "C13G G29U C42A", "self-cleavage": 0.11}
{"variant": "C13G G29C C31U U38G A39U C45A", "self-cleavage": 0.03}
{"variant": "C13G G21C C23U G30U", "self-cleavage": 0.04}
{"variant": "C13U C15U A26G C46A", "self-cleavage": 0.05}
{"variant": "C13U A16U G30A U43A C45G", "self-cleavage": 0.08}
{"variant": "C13G G21U G36C", "self-cleavage": 0.02}
{"variant": "C13G G22A C42G G44U", "self-cleavage": 0.11}
{"variant": "C13G U43A C46A", "self-cleavage": 0.06}
{"variant": "C13U A26C G33C", "self-cleavage": 0.06}
{"variant": "C13U A25C C42A", "self-cleavage": 0.04}
{"variant": "C13U A16U G22C C46U", "self-cleavage": 0.04}
{"variant": "C13U C15U A16C G36U C37U", "self-cleavage": 0.02}
{"variant": "C13G G21A C31G C46U", "self-cleavage": 0.04}
{"variant": "C13U A14G A16C C18U U32G", "self-cleavage": 0.02}
{"variant": "C13U A25U U34G", "self-cleavage": 0.02}
{"variant": "C13U A14C G19C G44A", "self-cleavage": 0.03}
{"variant": "C13G G19C G22A", "self-cleavage": 0.09}
{"variant": "C13U A14C G19A G33U", "self-cleavage": 0.07}
{"variant": "C13G G36C C45U", "self-cleavage": 0.06}
{"variant": "C13U A14G A16G G17A C23U G30C U32A G33C", "self-cleavage": 0.03}
{"variant": "C13G G27U U43A", "self-cleavage": 0.05}
{"variant": "C13U C15U U34G G36A", "self-cleavage": 0.09}
{"variant": "C13G G30C G36U C37A C42U", "self-cleavage": 0.11}
{"variant": "C13G G21U A24G", "self-cleavage": 0.08}
{"variant": "C13U C15U G21U G22A A25G", "self-cleavage": 0.08}
{"variant": "C13U A25C U28C U34G", "self-cleavage": 0.03}
{"variant": "C13U A25C A39C G44C", "self-cleavage": 0.02}
{"variant": "C13G U20A U34G G40U", "self-cleavage": 0.03}
{"variant": "C13U A25U U32C U34A U43A", "self-cleavage": 0.13}
{"variant": "C13G G19U C23G U28C C31A A39C", "self-cleavage": 0}
{"variant": "C13U C15U G19U G21C C37A", "self-cleavage": 0.04}
{"variant": "C13U A16C G19A G21U", "self-cleavage": 0.02}
{"variant": "C13G G22A U28A G30U C31A U43C", "self-cleavage": 0.06}
{"variant": "C13G G30A G36A", "self-cleavage": 0.22}
{"variant": "C13U C15U C37U G40A A41U", "self-cleavage": 0.09}
{"variant": "C13U A14G G17C C18G G44A", "self-cleavage": 0.01}
{"variant": "C13U A26C U38A", "self-cleavage": 0.21}
{"variant": "C13G G17U U20G A24C U43C", "self-cleavage": 0}
{"variant": "C13G G29U C37U C45A", "self-cleavage": 0.14}
{"variant": "C13G G19U G44C", "self-cleavage": 0.23}
{"variant": "C13G G21C G33U", "self-cleavage": 0.05}
{"variant": "C13U C15A U38A", "self-cleavage": 0.05}
{"variant": "C13U C15A U38G", "self-cleavage": 0.03}
{"variant": "C13G U20C U28G", "self-cleavage": 0.06}
{"variant": "C13G U34G C45U", "self-cleavage": 0.01}
{"variant": "C13G G22U C23A A39C", "self-cleavage": 0.07}
{"variant": "C13G G30A U34C G35A", "self-cleavage": 0.06}
{"variant": "C13G G22A G30C G35U", "self-cleavage": 0.15}
{"variant": "C13U C15U G27U", "self-cleavage": 0.55}
{"variant": "C13U A16G U34A", "self-cleavage": 0}
{"variant": "C13G G27U C31U", "self-cleavage": 0.1}
{"variant": "C13G G29A C42U U43G G44U", "self-cleavage": 1.22}
{"variant": "C13G G21U U34C", "self-cleavage": 0.02}
{"variant": "C13U A14G C18U U38A A41G", "self-cleavage": 0.03}
{"variant": "C13U A14U C15G", "self-cleavage": 0.07}
{"variant": "C13U A16G U28A C31G", "self-cleavage": 0.01}
{"variant": "C13U A14G A16U", "self-cleavage": 0.07}
{"variant": "C13U A14G G29C G35C", "self-cleavage": 0.06}
{"variant": "C13U C15A A25U C31U G33A", "self-cleavage": 0.03}
{"variant": "C13U C15U A16U G33U A39C", "self-cleavage": 0.01}
{"variant": "C13G G19U G35A C42G", "self-cleavage": 0.05}
{"variant": "C13G U20C A26U C45A", "self-cleavage": 0.09}
{"variant": "C13U C15G C18U C23U", "self-cleavage": 0.04}
{"variant": "C13U C15U G19C G27A G29C U43C", "self-cleavage": 0.1}
{"variant": "C13U C15G A24G A26C", "self-cleavage": 0.01}
{"variant": "C13U C15U C31U G40C", "self-cleavage": 0.22}
{"variant": "C13U C18A C37G", "self-cleavage": 0.02}
{"variant": "C13U A24C U32C", "self-cleavage": 0.03}
{"variant": "C13U A24G G30C", "self-cleavage": 0.08}
{"variant": "C13G G22C G36U", "self-cleavage": 0.02}
{"variant": "C13U A16U U38A A39U", "self-cleavage": 0.02}
{"variant": "C13U C15U A39U", "self-cleavage": 0.08}
{"variant": "C13G G19C C31U", "self-cleavage": 0.01}
{"variant": "C13U C15A G35C", "self-cleavage": 0.01}
{"variant": "C13U A16C C18G G27A G29U", "self-cleavage": 0.15}
{"variant": "C13U C15G C31A C37U", "self-cleavage": 0.06}
{"variant": "C13U A14C C23G A26C G44A", "self-cleavage": 0.05}
{"variant": "C13G G27A G29C", "self-cleavage": 0.09}
{"variant": "C13G G40U U43A", "self-cleavage": 0.01}
{"variant": "C13U A14U A16U A41U", "self-cleavage": 0.08}
{"variant": "C13U A24G C45A", "self-cleavage": 0.03}
{"variant": "C13U C15A A16G C18U G30A", "self-cleavage": 0.11}
{"variant": "C13U C15G G44C", "self-cleavage": 0.02}
{"variant": "C13G G36U U43A", "self-cleavage": 0.09}
{"variant": "C13U C18A A26C", "self-cleavage": 0.05}
{"variant": "C13G G19A G33U", "self-cleavage": 0.09}
